The target of this experiment is T1, Siglec-10Fc (human, UniProt Q96LC7 17-546).
T1 construct: It was the analyte in the Biacore assay; not shown: Fc part of Siglec-10Fc
T1 sequence (looked up): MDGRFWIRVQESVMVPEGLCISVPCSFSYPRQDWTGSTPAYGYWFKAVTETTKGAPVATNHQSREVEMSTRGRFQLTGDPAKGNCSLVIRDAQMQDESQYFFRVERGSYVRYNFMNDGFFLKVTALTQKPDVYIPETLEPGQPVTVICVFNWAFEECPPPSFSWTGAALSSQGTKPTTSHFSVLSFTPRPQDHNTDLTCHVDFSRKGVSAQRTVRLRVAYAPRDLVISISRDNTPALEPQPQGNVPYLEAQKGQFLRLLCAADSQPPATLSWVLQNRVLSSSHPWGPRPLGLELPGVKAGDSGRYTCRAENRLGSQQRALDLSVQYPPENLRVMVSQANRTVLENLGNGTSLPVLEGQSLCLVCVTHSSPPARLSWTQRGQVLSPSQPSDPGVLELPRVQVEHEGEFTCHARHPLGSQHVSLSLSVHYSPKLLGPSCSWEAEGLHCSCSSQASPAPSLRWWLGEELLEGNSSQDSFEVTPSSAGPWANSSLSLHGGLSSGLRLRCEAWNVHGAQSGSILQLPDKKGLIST
Nature of the experiment: Biacore (SPR): CD24Fc immobilized on the chip, Siglec-10Fc injected at different concentrations; plot of CD24Fc binding (RU) against Siglec 10 concentration (M) with fitted curve.

In patent US20230103352A1 (ONCOIMMUNE, published 2023) one finds Kd data, which are given here for 1 molecule.

What is called Kd is the free concentration of one partner at which half of the binding sites on the other are occupied at equilibrium, for simple one-to-one binding.

B1: CD24Fc (Fc fusion)
chain: SETTTGTSSNSSQSTSNSGLAPNPTNATT[left out - human IgG1 Fc]
notes: 6'; also called CD24Ig; CD24IgG1
For the molecule B1, the equilibrium dissociation constant (Kd) is 162 nM. This counts as sub-micromolar.
